Data from the supplement of paper PMC10369915.
Some of the results follow. Rule as the data show it: active = 3.2 or more and inactive = the rest. The signal is at background level for most entries.

Legend:
Assay in all cases: enrichment score (SH2-bound / input frequency) (ratio); bacterial display of known human phosphotyrosine sites (pTyr-Var adds point mutants) read by sequencing; higher = stronger binding; tyrosines were phosphorylated by kinases first
Settings in all cases: peptide library: pTyr-Var
[1] = biological target: SHP2 C-SH2 domain E139D
[2] = biological target: SHP2 C-SH2 domain wild-type
[3] = biological target: SHP2 N-SH2 domain L43F
[4] = biological target: SHP2 N-SH2 domain T42A
[5] = biological target: SHP2 N-SH2 domain T52S
[6] = biological target: SHP2 N-SH2 domain wild-type
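Also: displayed peptides selected on beads carrying the immobilized SH2 domain, with library peptides lacking any tyrosine serving as negative controls.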

Binder | enrichment score [1] | enrichment score [2] | enrichment score [3] | enrichment score [4] | enrichment score [5] | enrichment score [6]
LKVDVYGRSHK [FUT3_Y222] | inactive: 0.667 | inactive: 0.587 | inactive: 0.879 | inactive: 0.618 | inactive: 0.608 | inactive: 0.805
FLQTDDTSQVS [FRMPD1_Y846_Y846D] | inactive: 0.898 | inactive: 0.777 | inactive: 0.682 | inactive: 0.722 | inactive: 0.693 | inactive: 0.95
FSIDHYLGKEM [G6PD_Y202_R198S_YF] | inactive: 1.28 | inactive: 0.865 | inactive: 1.08 | inactive: 1.09 | inactive: 1.27 | inactive: 1.39
RSSGGYEPRGR [FUS_Y239] | inactive: 0.342 | inactive: 0.378 | inactive: 0.28 | inactive: 1.17 | inactive: 0.289 | inactive: 0.402
WNNLDYMDSRR [GAA_Y407_D404N] | inactive: 1.06 | inactive: 0.957 | inactive: 1.12 | inactive: 0.98 | inactive: 0.901 | inactive: 0.888
RSSGGYEPRGC [FUS_Y239_R244C] | inactive: 0.523 | inactive: 0.542 | inactive: 0.387 | inactive: 0.389 | inactive: 0.384 | inactive: 0.551
KRGIDYILRHM [FRMD1_Y225] | active: 4.71 | active: 3.89 | active: 4.42 | active: 3.73 | active: 4.43 | active: 3.76
WNDLDYMDSRR [GAA_Y407] | inactive: 0.893 | inactive: 0.678 | inactive: 0.725 | inactive: 0.798 | inactive: 0.751 | inactive: 0.848
FHIDHYLGKEM [G6PD_Y202_R198H_YF] | inactive: 1.99 | inactive: 1.68 | inactive: 1.55 | inactive: 1.9 | inactive: 1.55 | inactive: 1.42
GRERPYGGGGG [FUS_Y526_R521G] | inactive: 0.388 | inactive: 0.875 | inactive: 2.84 | inactive: 2.24 | inactive: 1.73 | inactive: 0.926
RRETPYGGGGG [FUS_Y526_R524T] | inactive: 0.289 | inactive: 0.158 | inactive: 0.27 | inactive: 0.226 | inactive: 0.2 | inactive: 0.145
FEELVYETVRV [FSHB_Y76_K72E] | inactive: 1 | inactive: 0.849 | inactive: 0.952 | inactive: 0.919 | inactive: 1.13 | inactive: 0.926
LADKPYTFEYY [FXN_Y118_D122Y] | inactive: 1.01 | inactive: 0.729 | inactive: 0.947 | inactive: 1.06 | inactive: 1.11 | inactive: 1.08
EATKGHLDDPT [G6PD_Y322_Y322H] | inactive: 0.426 | inactive: 0.55 | inactive: 0.399 | inactive: 0.414 | inactive: 0.671 | inactive: 0.683
CRERPYGGGGG [FUS_Y526_R521C] | inactive: 0.758 | inactive: 0.744 | inactive: 0.66 | inactive: 0.9 | inactive: 0.773 | inactive: 0.528
QQLQGYIPSNF [FRK_Y99_YF] | inactive: 1.1 | inactive: 0.849 | inactive: 0.976 | inactive: 0.636 | inactive: 0.56 | inactive: 0.884
PEAALYGRFTF [FYN_Y440_I445F] | inactive: 1.04 | inactive: 1.37 | inactive: 0.883 | inactive: 0.829 | inactive: 1.05 | inactive: 1.55
LADKPYTFEDY [FXN_Y118] | inactive: 0.465 | inactive: 0.807 | inactive: 0.858 | inactive: 0.829 | inactive: 0.762 | inactive: 0.727
RRESPYGGGGG [FUS_Y526_R524S] | inactive: 0.247 | inactive: 0.313 | inactive: 0.2 | inactive: 0.27 | inactive: 0.197 | inactive: 0.48

Binder | enrichment score [1] | enrichment score [2] | enrichment score [3] | enrichment score [4] | enrichment score [5] | enrichment score [6]
LSSLAYSGKDA [FXN_Y205] | inactive: 1.13 | inactive: 1.02 | inactive: 0.873 | inactive: 0.957 | inactive: 0.746 | inactive: 0.836
QQLQGYVPSNF [FRK_Y99_I100V_YF] | inactive: 0.991 | inactive: 0.794 | inactive: 0.644 | inactive: 0.66 | inactive: 0.806 | inactive: 0.879
HRERPYGGGGG [FUS_Y526_R521H] | inactive: 0.998 | inactive: 0.992 | inactive: 1.08 | inactive: 0.816 | inactive: 0.915 | inactive: 1.11
FARNCYVAGQF [G6PD_Y107_S106C_YF] | inactive: 0.765 | inactive: 0.97 | active: 7.95 | inactive: 0.703 | inactive: 0.619 | inactive: 1.12
CSSGGYEPRGR [FUS_Y239_R234C] | inactive: 0.488 | inactive: 0.528 | inactive: 0.532 | inactive: 0.551 | inactive: 0.503 | inactive: 0.63
FLQTDYTSQVS [FRMPD1_Y846] | inactive: 1.09 | inactive: 1 | inactive: 1.1 | inactive: 0.91 | inactive: 0.924 | inactive: 1.18
QGGRCYMMIVD [GAA_Y438_R437C] | inactive: 0.926 | inactive: 1 | inactive: 1.02 | inactive: 0.927 | inactive: 0.764 | inactive: 1.36
YHIDHYLGKEM [G6PD_Y202_R198H] | inactive: 0.994 | inactive: 0.948 | inactive: 1.09 | inactive: 0.844 | inactive: 1.1 | inactive: 0.731
FRIDHYLGKEM [G6PD_Y202_YF] | inactive: 1.19 | inactive: 1.07 | inactive: 0.916 | inactive: 1.17 | inactive: 1.19 | inactive: 1.08
LKVDVYRRSHK [FUT3_Y222_G223R] | inactive: 0.252 | inactive: 0.273 | inactive: 0.196 | inactive: 0.182 | inactive: 0.184 | inactive: 0.219
LADKPYTFEDF [FXN_Y118_YF] | inactive: 0.696 | inactive: 0.876 | inactive: 1.1 | inactive: 0.688 | inactive: 0.795 | inactive: 0.973
VNKLVYENING [FRS2_Y306] | active: 3.78 | inactive: 2.7 | inactive: 2.94 | active: 9.19 | active: 3.79 | inactive: 3.04
EATKGYLDDPT [G6PD_Y322] | inactive: 0.652 | inactive: 0.561 | inactive: 0.592 | inactive: 0.52 | inactive: 0.512 | inactive: 0.784
FARNSYVAGQY [G6PD_Y107] | inactive: 0.52 | inactive: 0.457 | inactive: 0.541 | inactive: 0.481 | inactive: 0.537 | inactive: 0.501
PNEAVYTKMMT [G6PD_Y401] | inactive: 0.62 | inactive: 0.733 | inactive: 0.753 | inactive: 0.802 | inactive: 0.683 | inactive: 0.724
QGGRRYMMIVD [GAA_Y438] | inactive: 0.659 | inactive: 0.513 | inactive: 0.517 | inactive: 0.536 | inactive: 0.411 | inactive: 1.42
LNEAVYTKMMT [G6PD_Y401_P396L] | inactive: 0.701 | inactive: 0.612 | inactive: 0.683 | inactive: 0.928 | inactive: 0.465 | inactive: 0.789
RRERLYGGGGG [FUS_Y526_P525L] | inactive: 0.231 | inactive: 0.268 | inactive: 0.227 | inactive: 0.205 | inactive: 0.244 | inactive: 0.168
